The test system of one data set is S. pyogenes ermB. Briefly: microbe, parasite or virus in culture. The following applies: for MIC Range: S. pyogenes ermB, n=25 isolates; for MIC50 / MIC90: Streptococcus pyogenes. It counts as cell-based, Streptococcus pyogenes.
For another data set, the target named is CYP3A (Homo sapiens, UniProt P08684). Briefly: CYP3A time-dependent inhibition in human liver microsomes (midazolam probe). On the procedure:
CYP3A is the major drug-metabolizing enzyme in human liver, catalyzing metabolism of an estimated 50% of all drugs. Inhibition of CYP3A can lead to drug-drug interactions. Most commercially available macrolides/ketolides are time-dependent inhibitors of CYP3A. Time-dependent inhibition (TDI) was assessed in vitro using human liver microsomes and a probe substrate for CYP3A activity (midazolam). Test compounds with lower Ki values and/or higher kinact and values have greater affinity for CYP3A and thereby greater potential for drug-drug interactions. […]
Secondary incubation: Secondary incubations containing midazolam (30 μMfinal) and NADPH-regenerating system (as described above for primary incubation) were carried out in triplicate in 100 mM KH2PO4, pH 7.4, at 37° C. open to air in a 0.7 mL total volume. […] The ratios of the peak area response of analyte (1′-hydroxymidazolam) to that of the internal standard were used for quantification.
The formation of 1′-hydroxymidazolam as a function of preincubation time and test compound concentration was determined. […] The natural log(Ln) of the percent remaining activity was plotted for each test compound concentration as a function of preincubation time, and the rate of inactivation (kobs) for each concentration was determined by calculating the slope of the linear portion of the percent remaining activity curve. […]

The results in this text go back to patent US20080293646A1, “MACROLIDES” (Pfizer Inc, priority 2007, published 2008).

Structures are written as SMILES. In brackets after ≈: the same amount, converted by molar mass. Counter-ions that a name gives are not always drawn.

In the case of `CC[C@H]1OC(=O)[C@H](C)C(=O)[C@H](C)[C@@H](O[C@@H]2O[C@H](C)C[C@H](N(C)C)[C@H]2O)[C@](C)(OC)C[C@@H](C)C(=O)[C@H](C)[C@H]2N(CCCCn3cnc(-c4cccnc4)c3)C(=O)O[C@]12C` [telithromycin], in the data set with S. pyogenes ermB, the “MIC Range” value is recorded as “≦0.06-64 μg/mL”, the MIC50 was 8 µg/mL (≈ 9.85 µM) and the MIC90 is 32 µg/mL (≈ 39.4 µM).

`CC[C@H]1OC(=O)[C@H](C)C(=O)[C@H](C)[C@@H](O[C@@H]2O[C@H](C)C[C@H](N(C)C)[C@H]2O)[C@](C)(OC)C[C@@H](C)C(=O)[C@H](C)[C@H]2N(C3CN(Cc4c(O)cnc5cccnc45)C3)C(=O)O[C@]12C` [Example 1, 3-Descladinosyl-11,12-dideoxy-6-O-methyl-3-oxo-12,11-(oxycarbonyl-(1-((3-hydroxy-[1,5]-naphthyridin-4-yl)methyl)-azetidin-3-yl)-imino)-erythromycin A Fumarate]: the “fold increase in Ki in the CYP3A TDI assay compared to Comparative Examples A and B” value at CYP3A is recorded as “approximately 10 fold”. Besides, in the data set on S. pyogenes ermB, the “MIC Range” value is “≦0.06-4 μg/mL”, the MIC50 stood at 1 µg/mL and the MIC90 worked out at 2 µg/mL. The “fold improvement in MIC90 over telithromycin” value with S. pyogenes ermB (ermB-containing S. pyogenes isolates) came to 16 fold.

With `CC[C@H]1OC(=O)[C@H](C)[C@@H](O[C@H]2C[C@@](C)(OC)[C@@H](O)[C@H](C)O2)[C@H](C)[C@@H](O[C@@H]2O[C@H](C)C[C@H](N(C)C)[C@H]2O)[C@](C)(O)C[C@@H](C)C(=O)[C@H](C)[C@@H](O)[C@]1(C)O` [erythromycin], in the data set on S. pyogenes ermB, the MIC50 was over 64 µg/mL and the MIC90 is over 64 µg/mL.

In the data set with S. pyogenes ermB, `CC1(C)S[C@@H]2[C@H](NC(=O)[C@H](N)c3ccc(O)cc3)C(=O)N2[C@H]1C(=O)O` [amoxicillin] registered an MIC50 of 0.0078 µg/mL (≈ 0.0213 µM) and an MIC90 of 0.0078 µg/mL (≈ 0.0213 µM).
